Experimental data: the supplement of paper PMC4604168 (melanoma cell lines)
The list shows a part of the results. Most values come without repeats; read them as rough.

Key:
Experiment in all cases: cell count relative to DMSO control; melanoma cells; higher = more viable cells
Settings in all cases: library dose: low library concentration; 72 h
MZ2-MEL = system: MZ2-MEL
MeWo = system: MeWo
RPMI7951 = system: RPMI7951
RVH-421 = system: RVH-421
SkMel28 = system: SkMel28
SkMel2 = system: SkMel2
SkMel30 = system: SkMel30
UACC62 = system: UACC62
SkMel5 = system: SkMel5
UACC257 = system: UACC257
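Further: cell number obtained by counting DAPI-stained nuclei in high-throughput microscope images with image analysis software, screen run in 1,536-well plates.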

| SMILES | cell count (MZ2-MEL) | cell count (MeWo) | cell count (RPMI7951) | cell count (RVH-421) | cell count (SkMel28) | cell count (SkMel2) | cell count (SkMel30) | cell count (UACC62) | cell count (SkMel5) | cell count (UACC257) |
| --- | --- | --- | --- | --- | --- | --- | --- | --- | --- | --- |
| Cc1cc(Nc2cc(N3CCN(C)CC3)nc(Sc3ccc(NC(=O)C4CC4)cc3)n2)n[nH]1 [Tozasertib] + Clc1ccc(Nc2nnc(Cc3ccncc3)c3ccccc23)cc1 [vatalanib] (first compound 0.006 µM, partner dose 2 µM) | 92.8% | 72.6% | 93.7% | 97.5% | 91.7% | 96.9% | 111% | 83.8% |  |  |
| N#CC[C@H](C1CCCC1)n1cc(-c2ncnc3[nH]ccc23)cn1 [ruxolitinib] + CC1(C)NC(=O)N(c2ccc([N+](=O)[O-])c(C(F)(F)F)c2)C1=O [nilutamide] (first compound 1 µM, partner dose 1 µM) | 103% | 83% | 109% | 93.9% | 112% | 92.8% |  | 117% | 117% |  |
| Cc1cc(Nc2cc(N3CCN(C)CC3)nc(Sc3ccc(NC(=O)C4CC4)cc3)n2)n[nH]1 [Tozasertib] + CC1(C)CCC(c2ccc(Cl)cc2)=C(CN2CCN(c3ccc(C(=O)NS(=O)(=O)c4ccc(N[C@H](CCN5CCOCC5)CSc5ccccc5)c(S(=O)(=O)C(F)(F)F)c4)cc3)CC2)C1 [ABT263] (first compound 0.006 µM, partner dose 0.4 µM) | 94.9% | 59.2% | 46.5% | 53.4% | 86.1% | 94.3% | 61.1% | 79.3% |  |  |
| CC[C@]1(O)C[C@H]2CN(CCc3c([nH]c4ccccc34)[C@@](C(=O)OC)(c3cc4c(cc3OC)N(C=O)[C@H]3[C@@](O)(C(=O)OC)[C@H](OC(C)=O)[C@]5(CC)C=CCN6CC[C@]43[C@@H]65)C2)C1 [vincristine] + Nc1ccn([C@@H]2O[C@H](CO)[C@@H](O)C2(F)F)c(=O)n1 [gemcitabine] (first compound 0.0001 µM, partner dose 0.0004 µM) | 103% | 78.7% | 61.9% | 83.8% | 78.4% | 93.8% | 62.7% | 57.1% |  |  |
| N#CC[C@H](C1CCCC1)n1cc(-c2ncnc3[nH]ccc23)cn1 [ruxolitinib] + Nc1cccc2c1CN(C1CCC(=O)NC1=O)C2=O [lenalidomide] (first compound 1 µM, partner dose 1 µM) | 98.2% | 105% | 109% | 99.9% | 123% | 99.5% | 113% | 108% |  |  |
| CC[C@]1(O)C[C@H]2CN(CCc3c([nH]c4ccccc34)[C@@](C(=O)OC)(c3cc4c(cc3OC)N(C=O)[C@H]3[C@@](O)(C(=O)OC)[C@H](OC(C)=O)[C@]5(CC)C=CCN6CC[C@]43[C@@H]65)C2)C1 [vincristine] + CC(=O)O[C@@]12CO[C@@H]1C[C@H](O)[C@@]1(C)C(=O)[C@H](O)C3=C(C)[C@@H](OC(=O)[C@H](O)[C@@H](NC(=O)OC(C)(C)C)c4ccccc4)C[C@@](O)([C@@H](OC(=O)c4ccccc4)[C@H]21)C3(C)C [Docetaxel] (first compound 0.0001 µM, partner dose 0.0001 µM) |  | 42.3% | 42.2% | 74.6% | 45.8% | 45.4% | 39.6% | 38% |  |  |
| N#CC[C@H](C1CCCC1)n1cc(-c2ncnc3[nH]ccc23)cn1 [ruxolitinib] + Cc1ccc(Nc2nccc(N(C)c3ccc4c(C)n(C)nc4c3)n2)cc1S(N)(=O)=O [Pazopanib] (first compound 1 µM, partner dose 0.4 µM) | 76% | 95.3% | 94.9% |  | 91.1% | 96% | 83.1% | 103% |  |  |
| Cc1cc(Nc2cc(N3CCN(C)CC3)nc(Sc3ccc(NC(=O)C4CC4)cc3)n2)n[nH]1 [Tozasertib] + Cc1cc(N2CCOCC2)cc2[nH]c(-c3c(NC[C@@H](O)c4cccc(Cl)c4)cc[nH]c3=O)nc12 [BMS536924] (first compound 0.006 µM, partner dose 0.2 µM) |  | 91.9% | 86.4% | 107% | 84.8% |  | 103% | 96.5% | 92.4% | 82.1% |
| N#CC[C@H](C1CCCC1)n1cc(-c2ncnc3[nH]ccc23)cn1 [ruxolitinib] + CCCCCCCCCCCCCCCCCCOP(=O)([O-])OC1CC[N+](C)(C)CC1 [Perifosine] (first compound 1 µM, partner dose 0.4 µM) | 106% | 81.9% | 89.5% | 74.4% |  | 88.9% | 81.9% | 121% |  |  |
| N#CC[C@H](C1CCCC1)n1cc(-c2ncnc3[nH]ccc23)cn1 [ruxolitinib] + Cn1sc(=O)n(Cc2ccccc2)c1=O [TDZD-8] (first compound 1 µM, partner dose 0.4 µM) |  | 93.1% | 90.5% | 84% | 118% |  | 101% | 106% |  |  |
| Cc1cc(Nc2cc(N3CCN(C)CC3)nc(Sc3ccc(NC(=O)C4CC4)cc3)n2)n[nH]1 [Tozasertib] + CC(C)CCN1c2nc(Nc3cc(F)c(O)c(F)c3)ncc2N(C)C(=O)C1C [BID1870] (first compound 0.006 µM, partner dose 0.2 µM) |  | 85.2% | 106% | 112% | 77.3% |  | 86.9% | 81.7% | 88.5% | 95.4% |
| N#CC[C@H](C1CCCC1)n1cc(-c2ncnc3[nH]ccc23)cn1 [ruxolitinib] + CN1CCN(c2ccc3nc(-c4c(N)c5c(F)cccc5[nH]c4=O)[nH]c3c2)CC1 [Dovitinib] (first compound 1 µM, partner dose 0.1 µM) | 96.2% | 96.1% |  | 128% | 140% | 106% | 93% | 119% |  |  |
| CC[C@]1(O)C[C@H]2CN(CCc3c([nH]c4ccccc34)[C@@](C(=O)OC)(c3cc4c(cc3OC)N(C=O)[C@H]3[C@@](O)(C(=O)OC)[C@H](OC(C)=O)[C@]5(CC)C=CCN6CC[C@]43[C@@H]65)C2)C1 [vincristine] + COC(=O)c1sccc1S(=O)(=O)Nc1ccc(Nc2ccccc2)cc1OC [GSK0660] (first compound 0.0001 µM, partner dose 1 µM) |  | 72.6% | 46.9% | 68.5% | 58% | 72.8% | 56.1% | 53% | 76.1% | 53.2% |
| N#CC[C@H](C1CCCC1)n1cc(-c2ncnc3[nH]ccc23)cn1 [ruxolitinib] + c1cc(-c2cnn3cc(-c4ccc(OCCN5CCCCC5)cc4)cnc23)ccn1 [Dorsomorphin] (first compound 1 µM, partner dose 0.4 µM) |  | 90.9% | 109% | 112% | 106% |  | 95.1% | 87.3% | 87.3% | 99.7% |
| CC[C@]1(O)C[C@H]2CN(CCc3c([nH]c4ccccc34)[C@@](C(=O)OC)(c3cc4c(cc3OC)N(C=O)[C@H]3[C@@](O)(C(=O)OC)[C@H](OC(C)=O)[C@]5(CC)C=CCN6CC[C@]43[C@@H]65)C2)C1 [vincristine] + NC(=O)c1ccc(N(C(N)=O)c2c(F)cccc2F)nc1-c1ccc(F)cc1F [VX702] (first compound 0.0001 µM, partner dose 0.4 µM) | 97% | 88.7% | 61.1% | 72.2% | 74.1% |  | 69.3% | 79.7% |  |  |
| CC[C@]1(O)C[C@H]2CN(CCc3c([nH]c4ccccc34)[C@@](C(=O)OC)(c3cc4c(cc3OC)N(C=O)[C@H]3[C@@](O)(C(=O)OC)[C@H](OC(C)=O)[C@]5(CC)C=CCN6CC[C@]43[C@@H]65)C2)C1 [vincristine] + C[C@@H](Oc1cc(-c2cnn(C3CCNCC3)c2)cnc1N)c1c(Cl)ccc(F)c1Cl [Crizotinib] (first compound 0.0001 µM, partner dose 0.2 µM) |  | 87.7% | 87.2% | 74.5% | 70.3% | 99.2% | 64.8% | 58.7% |  |  |
| N#CC[C@H](C1CCCC1)n1cc(-c2ncnc3[nH]ccc23)cn1 [ruxolitinib] + C[C@@H]1CCN(C(=O)CC#N)C[C@@H]1N(C)c1ncnc2[nH]ccc12 [CP690550] (first compound 1 µM, partner dose 1 µM) | 113% | 93.9% |  | 125% | 101% | 120% | 103% | 117% | 99.1% | 88.7% |
| CC[C@]1(O)C[C@H]2CN(CCc3c([nH]c4ccccc34)[C@@](C(=O)OC)(c3cc4c(cc3OC)N(C=O)[C@H]3[C@@](O)(C(=O)OC)[C@H](OC(C)=O)[C@]5(CC)C=CCN6CC[C@]43[C@@H]65)C2)C1 [vincristine] + C=C(c1ccc(C(=O)O)cc1)c1cc2c(cc1C)C(C)(C)CCC2(C)C [Bexarotene] (first compound 0.0001 µM, partner dose 2 µM) |  | 82.5% | 67% | 112% | 69.8% | 77.1% | 60.8% | 62.5% |  |  |
| N#CC[C@H](C1CCCC1)n1cc(-c2ncnc3[nH]ccc23)cn1 [ruxolitinib] + O=C(O)[C@@H]1[O][Sb](=[O])([O][Sb]2(=[O])[O][C@H]([C@H](O)CO)[C@H](O)[C@H](C(=O)O)[O]2)[O][C@H]([C@H](O)CO)[C@@H]1O [stibogluconate] (first compound 1 µM, partner dose 2 µM) | 97.2% | 92.4% | 87.2% |  | 114% | 92.4% | 96.5% | 106% |  |  |
| N#CC[C@H](C1CCCC1)n1cc(-c2ncnc3[nH]ccc23)cn1 [ruxolitinib] + Cn1nnc2c(C(N)=O)ncn2c1=O [temozolomide] (first compound 1 µM, partner dose 2 µM) | 100% | 98.9% | 99.9% |  | 96.5% | 106% | 115% | 95% |  |  |
| N#CC[C@H](C1CCCC1)n1cc(-c2ncnc3[nH]ccc23)cn1 [ruxolitinib] + Cn1cc(/C=C2\C(=O)Nc3cccnc32)c2ccccc21 [GW441756] (first compound 1 µM, partner dose 0.4 µM) | 105% |  | 82.1% | 107% | 138% |  | 112% | 106% | 91.6% | 83% |
| Cc1cc(Nc2cc(N3CCN(C)CC3)nc(Sc3ccc(NC(=O)C4CC4)cc3)n2)n[nH]1 [Tozasertib] + Cc1cc([N+](=O)[O-])ccc1NS(=O)(=O)c1cc(Cl)ccc1Cl [FH535] (first compound 0.006 µM, partner dose 1 µM) |  | 87.2% | 86.5% | 83.2% | 81.1% | 90.2% | 111% | 80.2% | 90.7% | 103% |
